# The campaign covered roughly 94,000 compounds. About 6,200 (6.6%) were called active. The shares of active, inactive and inconclusive entries below differ from those in the screen. The call rests on the fitted dose curve; in most records, active means well fitted inhibition curve with a large enough effect; inconclusive means small, poorly fitted or top-dose-only effect; inactive means flat fitted curve, though single readings scatter. Potencies of inconclusive entries are doubtful fits and often do not repeat.
# Assay: Cytotoxic Profiling in HEK 293 Cell Line of Diverse Libraries Using Quantitative High-Throughput Screening; further: nearly all actives have a fitted effect of over 60% in size
# Details: HEK 293 viability, ATP luminescence (CellTiter-Glo), 48-72 h; activity change, negative = cytotoxicity: at 115 µM (top of the series) unless noted; series mostly up to 115 µM
# In short: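 ATP-coupled CellTiter-Glo luminescence served as viability read-out, recorded 10 min after reagent addition at room temperature. HEK 293 cells, 250 cells/well, had been incubated with pintool-transferred compound for 48 or 72 hr at 37 degree Celsius.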
# On the % scale 0 is the no-effect control and ±100 the full control effect; potency means the concentration at half of the fitted maximal effect; tags describe the fitted curve by direction and shape.
SMILES,Potency,"activity change, negative = cytotoxicity",outcome
CC(C)[S+](=O)([O-])N(C)Cc1cccc(N2CCN([S+](=O)([O-])c3c(Cl)cccc3Cl)CC2)c1F,"inconclusive: 11.2 µM [inhibitor, full curve]",,
CC(C)c1ccc(CN2C[C@@H]3[C@H](C2)N(CCOc2ccccc2)C(=O)C(C)(C)[S+]3(=O)[O-])cc1,"inconclusive: 56.2 µM [inhibitor, partial curve, poor fit]",,
COCCN1C(=O)CCc2cc(NC(=O)c3ccc(F)cc3Cl)ccc21,"inconclusive: 39.8 µM [inhibitor, full curve, poor fit]",,
CCC(=O)N1CCC(Cn2c(C)cnc2C2CC2)CC1,,inactive: -3.56%,
COC(=O)C[C@H]1c2cccnc2C(=O)N(C)[C@@H]1C(=O)NCCc1ccccc1,"inconclusive: 39.8 µM [inhibitor, single point]",,
CC(C)C[C@@H]1N[C@H](C(=O)NCc2cccnc2)Cc2c[nH]c3cccc1c23,active: 25.1 µM,,
Cc1cc2c(-c3ccc(CO)cc3)nc(-c3c(C)noc3C)cc2[nH]1,"inconclusive: 39.8 µM [inhibitor, partial curve, poor fit]",,
N#Cc1cccc(CN2CCC(C3=NC(O)c4cc(F)ccc4N3)CC2)c1 (configuration not stated),"inconclusive: 63.1 µM [inhibitor, partial curve, poor fit]",,
Cc1cc(C(=O)NC2CCCN(c3ccnc4ccnn34)C2)ccc1Cl (configuration not stated),"inconclusive: 50.1 µM [inhibitor, partial curve, poor fit]",,
Cc1ccc(C(=O)NCCc2noc(-c3ccncc3)n2)cn1,,inactive: -12.2%,
CC(C)N1C(=O)C2(CCCC2)C1C(=O)NCc1cccc(C(F)(F)F)c1 (configuration not stated),,inactive: -3.99%,
O=[S+]([O-])(c1cccc(C(F)(F)F)c1)N1CCCN(c2ccnc3ccnn23)CC1,active: 44.7 µM,,
CC(C)c1noc(CC2CCN(C(=O)c3ccc4c(c3)OCO4)CC2)n1,"inconclusive: 56.2 µM [inhibitor, partial curve, poor fit]",,
CNC(=O)c1cc(C2CC2)nc2c1c(C1CCCN1C(=O)c1ccc(C)cc1)nn2C (configuration not stated),,inactive: -9.39%,
NC(=O)N1CCCC(C(=O)NCCc2nc(-c3ccccn3)no2)C1 (configuration not stated),,,inactive
Cc1ccc(OCCC2CCN(C(=O)c3cnccc3C)C2)cc1 (configuration not stated),"inconclusive: 89.1 µM [inhibitor, single point]",,
O=C(Cc1cccc(Cl)c1)N1CCCC(C(=O)N2CCC(N3CCOCC3=O)CC2)C1 (configuration not stated),,inactive: -0.0696%,
O=C(c1cccc(Br)c1)N1CCN(c2ccnc3ccnn23)CC1,"inconclusive: 79.4 µM [inhibitor, partial curve, poor fit]",,
O=C(NCc1ccc(F)cc1)C1CCCN(c2nccc(Nc3ccccc3F)n2)C1 (configuration not stated),"inconclusive: 35.5 µM [inhibitor, partial curve, poor fit]",,
Oc1ccc(-c2ccc(-c3nc(CCc4ccccc4)no3)cn2)cc1,"inconclusive: 56.2 µM [inhibitor, partial curve, poor fit]",,
COc1cccc(-c2nc3cnccn3c2NCCC(=O)N2CCc3ccccc32)c1,"inconclusive: 100 µM [inhibitor, single point]",,

SMILES,Potency,"activity change, negative = cytotoxicity",outcome
COCC1CN(C)CC12CCN(C(=O)CCc1ccccc1OC)CC2 (configuration not stated),"inconclusive: 79.4 µM [inhibitor, partial curve, poor fit]",,
O=C(Cc1ccccc1)N1CCCC2(CC(c3ccccc3)=NO2)C1 (configuration not stated),,inactive: -0.96%,
O=C(C1CC1)N1CCc2nc(C3CC3)nc(-c3ccc(O)cc3)c2CC1,,inactive: -20.8%,
COc1ccc(-c2ccc3ncc(Nc4ccc(CN5CCN(C)CC5)cc4)n3n2)cn1,"inconclusive: 89.1 µM [inhibitor, partial curve]",,
CCN1c2cc(C(=O)Nc3cccc(Cl)c3)ccc2C(=O)N2CCCC21 (configuration not stated),"inconclusive: 39.8 µM [inhibitor, partial curve]",,
Clc1cccc(-c2cnc([C@@H]3COCCN3C3CCCCC3)[nH]2)c1,active: 79.4 µM,,
COc1ccccc1-c1cccc(C(=O)N2CCC[C@H]2C(=O)NC2CC2)c1,,inactive: 2.76%,
O=C(CC1CCN(S(=O)(=O)c2cccc(F)c2)C1)NCc1ccccc1 (configuration not stated),"inconclusive: 79.4 µM [inhibitor, single point]",,
CCCN(Cc1nc(-c2ccc(C(F)(F)F)cc2)oc1C)CC1CCCO1 (configuration not stated),"inconclusive: 15.8 µM [inhibitor, full curve, poor fit]",,
c1ccc(-c2noc(-c3ccccc3OC3CNC3)n2)cc1,"inconclusive: 50.1 µM [inhibitor, partial curve, poor fit]",,
COc1ccc(CN2C[C@@H]3C(=O)N(CCN4CCc5ccccc5C4)C(=O)[C@@H]3C2)c(OC)c1,"inconclusive: 44.7 µM [inhibitor, partial curve, poor fit]",,
O=C(CC1CCCC1)N1CCN(Cc2ccc(=O)n(CC3CC3)c2)CC1,"inconclusive: 44.7 µM [inhibitor, partial curve, poor fit]",,
Cc1ccccc1C(=O)N1CCC(CCC(=O)NCCC(C)C)CC1,,inactive: -26.6%,
COc1ncccc1-c1ncc2c(n1)OCCN(Cc1ccccc1)C2=O,,inactive: -34.8% [at 172 µM],
C[C@H]1[C@@H]2[C@@H](O)C([C@H](C)C(=O)N3CCCCC3)CC[C@@]2(C)CC[C@@H]1NC(=O)c1ccccn1 (some centres not stated),,inactive: -8.74%,
NC1CCc2nn(CC(=O)N3CCCN(c4ncccn4)CC3)c(=O)n2CC1 (configuration not stated),,inactive: -0.985%,
Cc1ccc(C2Cn3cnc(C(=O)N4CCC(C(=O)NCc5ccccc5Cl)CC4)c3CO2)cc1 (configuration not stated),"inconclusive: 89.1 µM [inhibitor, single point]",,
COc1ccc(-c2cccc(C(=O)N3CCC(NC(=O)Nc4ccccc4)CC3)c2)nn1,,inactive: -21.5%,
Cc1ccccc1C(=O)N[C@@H]1CN(S(C)(=O)=O)C[C@H]1CN(C)C,"inconclusive: 89.1 µM [inhibitor, single point]",,
COC(=O)c1ccc(CN2C(=O)[C@@H]3C[C@@H](O)CN3C3(CN(CC(C)(C)C)C3)C2=O)cc1,,inactive: -2.89% [at 172 µM],
CCOc1ccccc1C(=O)N1CCN(c2cc(-c3ccc(F)cc3)[nH]n2)CC1,"inconclusive: 56.2 µM [inhibitor, partial curve, poor fit]",,

# From PubChem BioAssay AID1345083 (National Center for Advancing Translational Sciences (NCATS), 2018)
